# Assay results as given in PubChem BioAssay AID488969 (Vanderbilt High Throughput Screening Facility, 2010).
# The full ranking holds about 110,000 compounds; the median of “z-score” is about -0.1, and the highest 2% start at about 2. Some of the results follow. Active and inactive are the calls of the source.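 The calls were made as follows: active = z-score in the third read window above 3 or below -3; inactive = the rest.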
# Biological target: Metabotropic glutamate receptor 8 (Rattus norvegicus) (UniProt P70579)
# Test: mGluR8 Gi/Go-coupled signaling modulation – cell-based, rat, thallium flux, HTS, primary screen (AID 488969)
# Conditions: HEK293 rat mGluR8, GIRK (G protein-gated inwardly rectifying potassium channel) thallium flux, FluoZin2; at 10 µM; stronger effect = higher value; submaximal glutamate (EC20) added with thallium
# Chain of UniProt P70579 (P70579 whole entry, looked up): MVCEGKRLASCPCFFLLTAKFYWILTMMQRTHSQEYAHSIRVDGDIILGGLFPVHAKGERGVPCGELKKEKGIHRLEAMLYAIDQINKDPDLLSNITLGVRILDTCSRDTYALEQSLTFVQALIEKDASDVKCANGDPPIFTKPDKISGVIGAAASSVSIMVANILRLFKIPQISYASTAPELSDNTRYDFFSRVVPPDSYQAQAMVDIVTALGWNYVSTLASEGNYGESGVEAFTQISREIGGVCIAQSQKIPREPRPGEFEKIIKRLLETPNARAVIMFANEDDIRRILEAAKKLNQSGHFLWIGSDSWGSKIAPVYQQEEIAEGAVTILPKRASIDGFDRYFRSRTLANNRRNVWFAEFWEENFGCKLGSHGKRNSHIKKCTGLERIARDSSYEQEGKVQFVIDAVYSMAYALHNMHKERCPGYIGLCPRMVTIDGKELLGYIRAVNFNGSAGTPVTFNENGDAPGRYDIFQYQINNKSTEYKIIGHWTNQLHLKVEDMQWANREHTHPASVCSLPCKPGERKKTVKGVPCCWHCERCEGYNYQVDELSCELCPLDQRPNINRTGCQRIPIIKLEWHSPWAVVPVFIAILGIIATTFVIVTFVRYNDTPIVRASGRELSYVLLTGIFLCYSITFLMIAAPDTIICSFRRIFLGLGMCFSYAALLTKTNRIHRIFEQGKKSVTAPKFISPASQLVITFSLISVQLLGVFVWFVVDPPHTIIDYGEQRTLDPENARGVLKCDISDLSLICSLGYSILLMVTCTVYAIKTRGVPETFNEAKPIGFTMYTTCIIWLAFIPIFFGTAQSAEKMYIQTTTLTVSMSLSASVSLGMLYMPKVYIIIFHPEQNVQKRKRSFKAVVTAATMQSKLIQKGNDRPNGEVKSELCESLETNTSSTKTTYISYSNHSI
row,SMILES,z-score
1,Cc1ccc(NC(=O)/C(=C\c2cccc(Br)c2)NC(=O)c2ccco2)cc1,-0.288
2,O=C1C=C(c2ccccc2)C[C@H](c2cccs2)[C@H]1n1cnc([N+](=O)[O-])c1,-0.822
3,CC1=C(C(=O)N(C)CCC#N)C2(CCCCC2)OC1=O,0.484
4,COC(=O)c1[nH]c2cccc(Cl)c2c1NC(=O)CN1CCCCC1C (stereo not drawn),0.263
5,CCOC(=O)C(C)On1c(-c2ccccc2)nc2ccc([N+](=O)[O-])cc21 (stereo not drawn),-0.0477
6,c1ccc(-c2onc3c2CCCC3)cc1,-0.0458
7,Cc1ccc2c(c1)C(=NC1CCCCC1)c1cc3ccccc3nc1-2,-0.0871
8,Cc1cccn2c(=O)c(/C=C3\SC(=S)N(CC(C)C)C3=O)c(NCCCOC(C)C)nc12,-0.103
9,CCOc1ccc(-c2nc(C#N)c(N3CCN(Cc4ccccc4)CC3)o2)cc1,0.123
10,O=C1CC(c2ccccc2)CC(=O)C1Sc1ccc(Cl)cc1 (stereo not drawn),-0.107
11,CCOC(=O)C1=C(NC(=S)NC(=O)c2ccccc2)c2ccccc2CC1C(C)C (stereo not drawn),active: 3.46
12,COc1ccccc1NC(=O)c1cc(S(=O)(=O)N2CCC3(CC2)OCCO3)ccc1F,-0.251
13,Cc1nc(NC(=O)C2CC3CCCC(C2)C3=O)sc1C (stereo not drawn),0.238
14,O=C1CC(C(=O)Nc2ccc(Br)cc2)C2(CCCC2)O1 (stereo not drawn),2.34
15,COc1ccc(C2=CC(c3ccc(OC)c(OC)c3)n3nnnc3N2)c(OC)c1 (stereo not drawn),-0.596
16,Cc1ccc2nc(-c3ccc(NC(=O)CN(c4ccccc4C)S(C)(=O)=O)cc3)sc2c1,0.0306
17,CCOCC(=O)Nc1cc(C(=O)OC)cc(C(=O)OC)c1,0.617
18,Cc1ccc(-c2nnc(SCC(=O)NCC3CCCO3)n2C)cc1 (stereo not drawn),-0.0403
19,CCOc1ccc(/C=N/NC(=O)c2ccccc2NC(=O)c2ccc(OC)cc2)cc1,-0.0531
20,CCN(Cc1ccccc1)S(=O)(=O)c1ccc(C(=O)Nc2nnc(C3CC3)o2)cc1,0.994
21,COc1ccc(/C=N/NC(=O)CC(=O)NCc2cccnc2)cc1,0.13
22,O=c1cc(C(F)(F)C(F)F)oc2ccccc12,-0.0206

row,SMILES,z-score
1,N#CC1(C#N)CC(C=O)=C(N)C1(C#N)CC(=O)c1ccc(F)cc1 (stereo not drawn),-0.299
2,Cc1cc2nc3c(nc2cc1C)C1(C(=O)O)CCC3(C)C1(C)C (stereo not drawn),-0.167
3,CCc1ccc(S(=O)(=O)NC(CC(=O)O)c2ccccc2)cc1 (stereo not drawn),0.918
4,C=CCn1c(-c2ccco2)n[nH]c1=S,0.645
5,CSc1nc(N)nc(-c2cccs2)c1C#N,-0.212
6,C=CCOc1ccc(C(=O)CC)cc1OC,0.729
7,Cc1nc2ncnn2c(C)c1Cc1c(Cl)cccc1Cl,-0.306
8,CCCc1ccc(-c2cc(C(=O)NCCc3ccc(S(N)(=O)=O)cc3)c3ccccc3n2)cc1,-0.0952
9,C=CCNC(=O)COc1ccc(Br)cc1Cl,0.0502
10,CN1C(=O)N(C)C2(c3ccccc3)Nn3c(s/c(=C/c4ccccc4F)c3=O)=NC12c1ccccc1 (stereo not drawn),-0.12
11,C=CCN(C)NC(=S)Nc1ccccc1,-0.0707
12,COc1ccccc1NC(=O)CS(=O)(=O)c1cccc2nsnc12,1.99
13,CC1CN(Cc2ccccn2)CCC1=O (stereo not drawn),-0.215
14,O=C(NCc1ccco1)C(C(=O)c1ccccc1)n1ccccc1=O (stereo not drawn),0.391
15,O=C(NCC1CCCO1)/C(=C/c1ccc(Cl)cc1)NC(=O)c1ccccc1 (stereo not drawn),0.00497
16,Cc1ccc([N+](=O)[O-])cc1NC(=O)CCSc1ccc(Cl)cc1,0.07
17,CCOC(=O)CN1NC2(CCC(C)CC2)NC1=S (stereo not drawn),-0.408
18,Cc1cc(-c2n[nH]c(=S)n2/N=C/C(Cl)=C/c2ccccc2)n[nH]1,-0.527
19,Cn1c(=O)c2c(nc(CN3CCCCC3)n2CCCc2ccccc2)n(C)c1=O,-0.271
20,CN(C)S(=O)(=O)c1cccc(C(=O)OCC(=O)NCc2ccccc2)c1,-0.0286
21,O=C(c1cccc2ccccc12)N1CCN=C1SCc1ccc([N+](=O)[O-])cc1,-0.184
22,N#CC1=C(N)Oc2n[nH]c(-c3cccs3)c2C1c1ccsc1 (stereo not drawn),-2.2

row,SMILES,z-score
1,COc1ccc(N2CCN(C(c3cccc(OC)c3OC)c3nnnn3C3CCCC3)CC2)cc1 (stereo not drawn),-0.849
2,CCCCCCOc1ccc(NC(=O)CC2C(=O)N(CC)C(=S)N2Cc2ccco2)cc1 (stereo not drawn),0.42
3,CCOc1ccccc1C(=O)N1CCC(C(=O)c2ccc(F)cc2)CC1,0.0981
4,CCCCn1c(NS(=O)(=O)c2ccccc2)c(S(=O)(=O)c2ccc(C)cc2)c2nc3ccccc3nc21,-0.41
5,O=C(NCc1ccccc1)C1CCCN(S(=O)(=O)c2cccnc2)C1 (stereo not drawn),0.269
6,O=C(CN1CCN(c2nc(-c3ccc(Cl)cc3)cs2)CC1)NCc1ccco1,-0.029
7,COC(=O)C1=NN(c2ccccc2)C2C(=O)N(c3ccccc3OC)C(=O)C12 (stereo not drawn),active: -3.39
8,Cc1[nH]c2ccc(Br)cc2c(=O)c1CN1CCCCC1,-0.169
9,Cc1cccc(Cn2cnc3c(nnn3Cc3ccccc3F)c2=O)c1,0.292
10,Cc1c(NC(=O)CSc2n[nH]c(-c3ccccc3)n2)c(=O)n(-c2ccccc2)n1C,0.107
11,CC(=O)Nc1cc(C(F)(F)F)ccc1OCCOc1ccccc1,-1.36
12,Cc1nc2sc(C(c3ccco3)N3CCN(c4cccc(Cl)c4)CC3)c(O)n2n1 (stereo not drawn),0.32
13,CCOC(=O)Cn1c(=O)c2c(nc(N3CCOCC3)n2C)n(C)c1=O,-0.0307
14,O=c1c2ccccc2nc2n1C(CSCc1ccc(Cl)cc1)CS2 (stereo not drawn),-0.757
15,COc1cccc(C(=O)C2CN(c3ccccc3)CC2c2ccc(Cl)cc2)c1 (stereo not drawn),0.0208
16,CCOc1ccc(C2CC(c3cccc(OC)c3)Nc3nc(N)nn32)cc1 (stereo not drawn),0.488
17,Cc1ccc(-c2noc(C3CCCN(C(=O)c4ccc(F)cc4F)C3)n2)cc1 (stereo not drawn),-0.802
18,CCOC(=O)C1=C(C)N(C)C(=O)NC1c1ccccc1OC (stereo not drawn),0.0572
19,O=C1CCC(C(=O)O)(c2ccccc2)C1 (stereo not drawn),-0.0195
20,CC(=O)Oc1ccc(C(=O)[C@H]2[C@H]3C(=O)N(c4cccc5ccccc45)C(=O)[C@H]3[C@@H]3C=CC=NN32)cc1,1.24
21,COc1cccc(-n2c(Cc3cc(=O)[nH]c(=O)[nH]3)nnc2SCc2cccnc2)c1,0.187
22,Cc1ccc(-c2noc(CCC(=O)Nc3ccccc3N3CCN(C)CC3)n2)cc1,1.14

row,SMILES,z-score
1,O=C(C(Cc1ccccc1)N1C(=O)C2C3C=CC(C3)C2C1=O)N1CCCCC1 (stereo not drawn),-0.174
2,COCCNC(=O)C1c2ccccc2C(=O)N(CCOC)C1c1ccc(F)cc1 (stereo not drawn),0.14
3,Cc1sc2nc(CSCC(=O)N(C)c3ccccc3)[nH]c(=O)c2c1C,-0.125
4,CCCS(=O)(=O)N1CCCC(c2nc(-c3ccc(OC)cc3)no2)C1 (stereo not drawn),0.0798
5,O=C(NC1CCCCC1)C(c1ccccc1)N(C(=O)Cc1ccsc1)c1ccccc1 (stereo not drawn),-0.0429
6,Cc1cccc(/C(N)=N/OC(=O)N2c3ccccc3Sc3ccccc32)c1,-0.461
7,Cc1[nH]nc(SCC(=O)NCc2ccc(F)cc2)c1[N+](=O)[O-],-0.231
8,CSCCOC(=O)C1=C(C)NC(=O)CC1c1ccccc1Cl (stereo not drawn),-1.78
9,O=C(CCCC(=O)OCC1CCCO1)OCC1CCCO1 (stereo not drawn),0.152
10,O=C(O)CCCCCN1C(=O)c2ccc(C(=O)O)cc2C1=O,-0.139
11,COc1ccc(C)cc1NC(=O)CSc1nnc(COc2ccc(C)cc2)n1Cc1ccco1,-0.283
12,CCOC(=O)N1CCC(NC2CCCCCCC2)CC1,0.469
13,CSCCC(NS(=O)(=O)c1ccc2ccccc2c1)C(=O)OCC(=O)c1ccc(C(C)C)cc1 (stereo not drawn),0.133
14,CCc1nnc(NC(=O)C2CCCN(c3nc(C)cc(C)n3)C2)s1 (stereo not drawn),0.0266
15,Cc1onc(-c2ccccc2Cl)c1C(=O)NCc1ccc(S(N)(=O)=O)cc1,0.118
16,CCOC(=O)Nc1sc2c(c1C(=O)OCC)CCC2,0.418
17,Cc1oc2ccc(O)c(CN3CCOCC3)c2c1C(C)O (stereo not drawn),-0.147
18,CC(=O)NC1=NN(c2ccccc2)C(=O)C1,0.0492
19,COc1cc2c(cc1OC)CN(S(C)(=O)=O)CC2,0.0161
20,COc1ccc(OC)c(S(=O)(=O)NC2CCCCC2)c1,0.263
21,O=C(N1CCOCC1)N1CCN(c2nc(-c3ccccc3)cs2)CC1,0.418
22,CCOc1ccc(C2N(c3ccc(OC)cc3)C(=O)C3CCCN32)cc1OC (stereo not drawn),0.63

row,SMILES,z-score
1,CCOC(=O)C(=CNc1cccc(C)n1)C(=O)OCC,-0.58
2,COC(=O)c1c(S(=O)(=O)NCc2ccccc2)sc(C(=O)O)c1C,-0.417
3,CCN1CCn2c3c(c4cc(Br)ccc42)CCCC31 (stereo not drawn),-0.882
4,C#CCn1c(=NC(=O)c2cccs2)sc2cccc(OCC)c21,0.199
5,CCc1nc(N2CCOCC2)c(C#N)c2c1CCCC2,-1.43
6,CS/C(=N\S(=O)(=O)c1cccs1)Nc1ccc(F)cc1,1.49
7,O=C(NCc1nc(-c2ccccc2)no1)c1ccc(Br)o1,-0.168
8,O=C(CCc1ccc(S(=O)(=O)NCCc2ccccc2)cc1)N1CCN(Cc2ccc3c(c2)OCO3)CC1,-0.243
9,O=C(COc1ncnc2ccccc12)Nc1cccc(S(=O)(=O)N2CCOCC2)c1,-0.18
10,CC(C)Cc1nnc(NS(C)(=O)=O)s1,0.0252
11,COc1ccc(CNCc2ccco2)cc1OCc1ccccc1,0.176
12,CC1(C)CC(CCN(Cc2ccccc2)C(=O)c2ccco2)(c2ccccc2)CCO1 (stereo not drawn),0.0289
13,Cc1nc(NC(=O)c2ccccc2)sc1-c1csc(Nc2cccc(F)c2)n1,-0.0632
14,Cc1cc(N2CCCC2=O)cc(C)c1S(=O)(=O)NCCOc1ccc(C(C)(C)C)cc1,-0.292
15,Cc1nnc(N2CCN(C)CC2)c2nn(-c3ccc(Cl)cc3)c(C)c12,-0.299
16,O=C(C1CCN(S(=O)(=O)c2cccc3cccnc23)CC1)N1CCn2c1nc1ccccc12,-0.522
17,CSc1cc(-c2ccccc2)n(Cc2ccc(Cl)cc2Cl)c(=O)c1C#N,0.0211
18,CC(OC(=O)C(C)N1C(=O)C2C3C=CC(C4CC34)C2C1=O)C(=O)c1ccccc1 (stereo not drawn),-0.0805
19,COc1ccc(C2(C(=O)NCCCN3CCOCC3)CCOCC2)cc1,-0.278
20,CCCCNC(=O)CC1N=C2c3ccccc3N=C(SCC(=O)Nc3ccccc3OC)N2C1=O (stereo not drawn),-0.316
